# Source: the supplement of paper PMC8728848
# The other results are listed elsewhere or left out.
# B1: GSL-I-B4 (Griffonia simplicifolia) (protein)
# chain: NFWSDVEDSIIFQGDANTTAGTLQLCKTNQYGTPLQWSAGRALYSDPVQLWDNKTESVASFYTEFTFFLKITGNGPADGLAFFLAPPDSDVKDAGEYLGLFNKSTATQPSKNQVVAVEFDTWTNPNFPEPSYRHIGINVNSIVSVATKRWEDSDIFSGKIATARISYDGSAEILTVVLSYPDGSDYILSHSVDMRQNLPESVRVGISASTGNNQFLTVYILSWRFSSNLQSTSVKAAMEPEITRTVV
# Key:
# Assay in all cases: glycan array binding signal (z-score within array); higher = stronger binding
# Details in all cases: glycan notation: IUPAC condensed, linker removed
# [1] = target: Gal(a1-3)Gal(b1-4)GlcNAc(b1-2)Man
# Summary of the method: (§1)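 Arrays were curated from the Consortium for Functional Glycomics database, 3228 in total, and kept only where the protein sequence was available. Binding is expressed as a within-array Z-score. This score was averaged across arrays of the same protein sequence at different concentrations or buffers and across linkers, and negative values can be read as non-binding.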
# [2] = target: Gal(a1-3)Gal(b1-4)GlcNAc(b1-2)Man(a1-3)[Gal(a1-3)Gal(b1-4)GlcNAc(b1-2)Man(a1-6)]Man(b1-4)GlcNAc(b1-4)GlcNAc
# Summary of the method: as §1
# [3] = target: Gal(a1-3)Gal(b1-4)GlcNAc(b1-3)GalNAc
# Summary of the method: as §1
# [4] = target: Gal(a1-3)Gal(b1-4)GlcNAc(b1-6)GalNAc
# Summary of the method: as §1
# [5] = target: Gal(a1-3)Gal(b1-4)[Fuc(a1-3)]GlcNAc
# Summary of the method: as §1
# [6] = target: Gal(a1-3)Gal(b1-4)[Fuc(a1-3)]GlcNAc(b1-2)Man(a1-3)[Gal(a1-3)Gal(b1-4)[Fuc(a1-3)]GlcNAc(b1-2)Man(a1-6)]Man(b1-4)GlcNAc(b1-4)GlcNAc
# Summary of the method: as §1
# [7] = target: Gal(a1-3)GalNAc
# Summary of the method: as §1
# [8] = target: Gal(a1-3)[Gal(a1-4)]Gal(b1-4)GlcNAc
# Summary of the method: as §1
# [9] = target: Gal(a1-4)Gal(b1-3)GlcNAc(b1-2)Man(a1-3)[Gal(a1-4)Gal(b1-3)GlcNAc(b1-2)Man(a1-6)]Man(b1-4)GlcNAc(b1-4)GlcNAc
# Summary of the method: as §1
# [10] = target: Gal(a1-4)Gal(b1-4)Glc
# Summary of the method: as §1
# [11] = target: Gal(a1-4)Gal(b1-4)GlcNAc
# Summary of the method: as §1
# [12] = target: Gal(a1-4)Gal(b1-4)GlcNAc(b1-2)Man(a1-3)[Gal(a1-4)Gal(b1-4)GlcNAc(b1-2)Man(a1-6)]Man(b1-4)GlcNAc(b1-4)GlcNAc
# Summary of the method: as §1
# [13] = target: Gal(a1-4)Gal(b1-4)GlcNAc(b1-3)Gal(b1-4)Glc
# Summary of the method: as §1
# [14] = target: Gal(a1-4)GlcNAc
# Summary of the method: as §1
# [15] = target: Gal(a1-6)Glc
# Summary of the method: as §1
# [16] = target: Gal(b1-2)Gal
# Summary of the method: as §1
# [17] = target: Gal(b1-3)Gal
# Summary of the method: as §1
# [18] = target: Gal(b1-3)Gal(b1-4)GlcNAc
# Summary of the method: as §1
# [19] = target: Gal(b1-3)GalNAc
# Summary of the method: as §1
# [20] = target: Gal(b1-3)GalNAc(a1-3)[Fuc(a1-2)]Gal(b1-4)Glc
# Summary of the method: as §1
# [21] = target: Gal(b1-3)GalNAc(a1-3)[Fuc(a1-2)]Gal(b1-4)GlcNAc
# Summary of the method: as §1
# [22] = target: Gal(b1-3)GalNAc(b1-3)Gal
# Summary of the method: as §1
# [23] = target: Gal(b1-3)GalNAc(b1-3)Gal(a1-4)Gal(b1-4)Glc
# Summary of the method: as §1
# [24] = target: Gal(b1-3)GalNAc(b1-4)Gal(b1-4)Glc
# Summary of the method: as §1
# [25] = target: Gal(b1-3)GalNAc(b1-4)[Neu5Ac(a2-3)]Gal(b1-4)Glc
# Summary of the method: as §1
# [26] = target: Gal(b1-3)GlcNAc
# Summary of the method: as §1
# [27] = target: Gal(b1-3)GlcNAc(a1-3)Gal(b1-4)GlcNAc
# Summary of the method: as §1
# [28] = target: Gal(b1-3)GlcNAc(a1-6)Gal(b1-4)GlcNAc
# Summary of the method: as §1
# [29] = target: Gal(b1-3)GlcNAc(b1-2)Man
# Summary of the method: as §1
# [30] = target: Gal(b1-3)GlcNAc(b1-2)Man(a1-3)[Gal(b1-3)GlcNAc(b1-2)Man(a1-6)]Man(b1-4)GlcNAc(b1-4)GlcNAc
# Summary of the method: as §1
# [31] = target: Gal(b1-3)GlcNAc(b1-2)Man(a1-3)[Gal(b1-3)GlcNAc(b1-2)Man(a1-6)]Man(b1-4)GlcNAc(b1-4)[Fuc(a1-6)]GlcNAc
# Summary of the method: as §1
# [32] = target: Gal(b1-3)GlcNAc(b1-2)Man(a1-3)[GlcNAc(b1-4)][Gal(b1-3)GlcNAc(b1-2)Man(a1-6)]Man(b1-4)GlcNAc(b1-4)GlcNAc
# Summary of the method: as §1
# [33] = target: Gal(b1-3)GlcNAc(b1-2)[Gal(b1-3)GlcNAc(b1-6)]Man(a1-6)[Gal(b1-3)GlcNAc(b1-2)Man(a1-3)]Man(b1-4)GlcNAc(b1-4)GlcNAc
# Summary of the method: as §1
# [34] = target: Gal(b1-3)GlcNAc(b1-3)Gal(b1-3)GlcNAc
# Summary of the method: as §1
# [35] = target: Gal(b1-3)GlcNAc(b1-3)Gal(b1-4)Glc
# Summary of the method: as §1
# [36] = target: Gal(b1-3)GlcNAc(b1-3)Gal(b1-4)GlcNAc
# Summary of the method: as §1
# [37] = target: Gal(b1-3)GlcNAc(b1-3)Gal(b1-4)GlcNAc(b1-2)Man(a1-3)[Gal(b1-3)GlcNAc(b1-3)Gal(b1-4)GlcNAc(b1-2)Man(a1-6)]Man(b1-4)GlcNAc(b1-4)GlcNAc
# Summary of the method: as §1
binder,measurement,setting,value
B1,glycan array binding signal (z-score),[1],0.95
same,glycan array binding signal (z-score),[2],7.78
same,glycan array binding signal (z-score),[3],0.884
same,glycan array binding signal (z-score),[4],1.65
same,glycan array binding signal (z-score),[5],6.03
same,glycan array binding signal (z-score),[6],1.14
same,glycan array binding signal (z-score),[7],-0.087
same,glycan array binding signal (z-score),[8],1.71
same,glycan array binding signal (z-score),[9],5.37
same,glycan array binding signal (z-score),[10],0.394
same,glycan array binding signal (z-score),[11],0.457
same,glycan array binding signal (z-score),[12],1.52
same,glycan array binding signal (z-score),[13],0.296
same,glycan array binding signal (z-score),[14],13.8
same,glycan array binding signal (z-score),[15],-0.183
same,glycan array binding signal (z-score),[16],-0.173
same,glycan array binding signal (z-score),[17],-0.186
same,glycan array binding signal (z-score),[18],-0.182
same,glycan array binding signal (z-score),[19],-0.19
same,glycan array binding signal (z-score),[20],-0.208
same,glycan array binding signal (z-score),[21],-0.212
same,glycan array binding signal (z-score),[22],-0.229
same,glycan array binding signal (z-score),[23],-0.12
same,glycan array binding signal (z-score),[24],-0.114
same,glycan array binding signal (z-score),[25],-0.227
same,glycan array binding signal (z-score),[26],-0.164
same,glycan array binding signal (z-score),[27],-0.209
same,glycan array binding signal (z-score),[28],-0.155
same,glycan array binding signal (z-score),[29],-0.171
same,glycan array binding signal (z-score),[30],-0.151
same,glycan array binding signal (z-score),[31],-0.116
same,glycan array binding signal (z-score),[32],-0.151
same,glycan array binding signal (z-score),[33],-0.138
same,glycan array binding signal (z-score),[34],-0.181
same,glycan array binding signal (z-score),[35],-0.16
same,glycan array binding signal (z-score),[36],-0.228
same,glycan array binding signal (z-score),[37],-0.208
